Results as given in PubChem BioAssay AID938 (National Center for Advancing Translational Sciences (NCATS), 2007).
The campaign covered roughly 73,000 compounds. About 1,800 (2.5%) were called active. The inconclusive results got no clear call from the source; some entries with a clear call stand among them for comparison. Calls follow the shape of the dose curve; as a rule, active = well fitted activation curve with a large enough effect; inconclusive = small, poorly fitted or top-dose-only effect; inactive = no such curve, though single readings can be large or run the other way. Potencies of inconclusive entries are left out as doubtful fits.

Assay: qHTS Assay for Agonists of the Thyroid Stimulating Hormone Receptor: Activators of Intracellular cAMP Concentrations in Parental HEK 293; also: nearly all actives have a fitted effect of over 55% in size; as to activation: % of control where 0% means no effect
Details: parental HEK293 CNG cAMP sensor, membrane potential fluorescence; activation: at 57.1 µM (top of the series) unless noted
Method in brief: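 Counterscreen for endogenous-receptor signalling: CNG-channel HEK 293 cells report cAMP rise by membrane depolarization. After 60 min dye equilibration with 100 uM RO 20-1724, compounds incubated 30 min before bottom-read fluorescence at 590 nm.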
Potency is read from the fitted curve at half-maximal effect; tags tell the direction and shape of the fitted curve.

SMILES | Potency | activation
CCCCNC(=O)CCC(=O)Nc1ccc2nc(N3CCOCC3)cc(C)c2c1 | inactive | 
COC(=O)c1c(NC(=O)CSc2nncs2)sc2c1CCCCC2 | inconclusive [activator, single point] | 
Cn1c(SCC(=O)NCc2ccco2)nnc1-c1ccc(S(=O)(=O)N2CCOCC2)cc1 | inconclusive [activator, single point] | 
Cc1[nH]nc2c1C(c1ccccc1F)CC(=O)N2 (stereo unspecified) |  | inactive: 14.9% [at 2.29 µM]
O=C(CSc1nc2c(c(=O)n1-c1ccc(Cl)cc1)SCC2)N1CCCC1 | inconclusive [activator, partial curve] | 
CC(C)S | inactive | 
COc1ccc(S(=O)(=O)N2CCC(O)(c3ccc(Cl)cc3)CC2)cc1 | inconclusive [activator, single point] | 
CCOc1ccc2nc3cc(N=Nc4ccc(N)nc4N)ccc3c(N)c2c1 |  | inactive: 0.411% [at 11.4 µM]
CCN1CCN(C(c2cccs2)C(C)NC(=O)c2cccc(OC)c2OC)CC1 (stereo unspecified) | inactive | 
O=C(c1cnccn1)N1CCC[C@@]2(CCN(c3cccc(-c4ccccc4)c3)C2)C1 | inconclusive [activator, partial curve] | 
COCCn1c(=NC(=O)CSCC(=O)NC2CCCCC2)sc2cc(OC)ccc21 | inconclusive [activator, partial curve] | 
CCN1CCN(c2cc(C)c3cc(NC(=O)c4cnccn4)ccc3n2)CC1 | inactive | 
COC(=O)c1ccccc1NC(=O)CN1CCN(C23CC4CC(CC(C4)C2)C3)CC1 | active: 7.94 µM | 
CCCCOc1ccccc1C1CC(=O)NC2=C1C(=O)CCC2 (stereo unspecified) | inactive | 
O=C(c1cnccn1)N1CCC2(CC1)CN(Cc1cc(C(F)(F)F)cc(C(F)(F)F)c1)C2 | inactive | 
CCNC(=O)CN(c1ccc(C)cc1)S(=O)(=O)c1ccc(SC)cc1 | inconclusive [activator, partial curve] | 
Nc1ncnc2c1nc(Br)n2[C@H]1O[C@H]2COP(=O)(O)O[C@H]2[C@@H]1O | inactive | 
c1ccc(COn2c(-c3ccccc3)nc3c2CCc2nonc2-3)cc1 | active: 25.1 µM | 
O=C(c1cc(C(F)(F)F)cc(C(F)(F)F)c1)N1CCC2(CC1)CCN(c1ccccc1)CC2 | inconclusive [activator, single point] | 
CC(C)n1c(SCc2ccccc2F)nc2c1c(=O)n(C)c(=O)n2C | inconclusive [activator, single point] | 
Cc1cc(C)n(-c2ccc(C(=O)Nc3ccc4c(c3)OCCO4)cc2)n1 | inactive | 
O=C(NCC1CCCO1)c1c(O)c2c([nH]c1=O)CCCC2 (stereo unspecified) | inconclusive [activator, single point] | 
Clc1c(CSc2nc3ccccc3o2)nc2sccn12 | active: 31.6 µM | 

SMILES | Potency | activation
Cc1ccc(S(=O)(=O)N(Cc2ccccc2)Cc2ccco2)cc1 | inconclusive [activator, single point] | 
COCCn1c(=O)c(-c2ccccc2)nc2cnc(N(C)C)nc21 | inconclusive [activator, partial curve] | 
CN=c1scc(C)n1/N=C/c1ccc(O)cc1 | inactive | 
COc1cc2cc(C(c3nnnn3C3CCCC3)N3CCCCC3)c(=O)[nH]c2cc1OC (stereo unspecified) | inconclusive [activator, partial curve] | 
O=C1NCCCC2c3c(cc(Br)c(O)c3Br)OC12N1CCOCC1 (stereo unspecified) | inactive | 
COc1ccc(-n2c(=O)c(-c3cc(F)cc(F)c3)nc3cnc(N4CCNCC4)nc32)cc1 |  | inactive: 11.5% [at 0.457 µM]
CCN1CCN(c2ncc3c(n2)CC(c2cc(OC)c(OC)c(OC)c2)CC3=O)CC1 (stereo unspecified) | active: 10 µM | 
O=C(Cc1ccccc1)N1CCC(c2nc(-c3ccc(F)cc3)no2)CC1 | inconclusive [activator, partial curve] | 
COCCn1nnnc1CN(CCc1ccc(OC)c(OC)c1)Cc1cc2ccc(C)cc2[nH]c1=O | inconclusive [activator, single point] | 
Cc1ccc(S(=O)(=O)N2CCN(C(=O)N(C)C)CC2)cc1C | inactive | 
Cc1nc2ccc(Br)cn2c(=O)c1Cl | inactive | 
COc1ccc(Cn2nnnc2C(c2ccccc2Cl)N2CCN(C3CCCC3)CC2)cc1 (stereo unspecified) | inconclusive [activator, partial curve, poor fit] | 
CC(C)C(c1nnnn1Cc1ccco1)N1CCN(C2CCCC2)CC1 (stereo unspecified) | inconclusive [activator, full curve] | 
CC(=O)c1cccc(NC(=O)c2ccc(S(=O)(=O)N3CCCCC3)cc2)c1 | inconclusive [activator, single point] | 
CC(=O)c1c(C(C)=O)c(C)n(-c2nc(-c3cccs3)c(C)s2)c1C | inconclusive [activator, single point] | 
Cc1ccc(-n2c(SCC(=O)Nc3ccc4c(c3)OCO4)nnc2-c2cccs2)cc1 | inconclusive [activator, full curve, poor fit] | 
COC(=O)[C@@]1(Cc2ccc(OC)cc2)[C@H]2c3cc(C(=O)N4CCCC4)n(Cc4ccc(C)o4)c3C[C@H]2CN1C(=O)c1ccccc1 | active: 3.16 µM | 
CCOC(=O)c1sc2nc(CC(=O)OC)nc(NCc3ccco3)c2c1C | inconclusive [activator, partial curve, poor fit] | 
CN1CCN(c2ncc3nc(-c4cccc(C#N)c4)c(=O)n(C[C@H]4CCCO4)c3n2)CC1 | inactive | 
Cn1c(Cc2cccs2)nnc1SC/C=C/c1ccccc1 | inconclusive [activator, partial curve] | 
CCC(C(=O)NCc1ccco1)N(C(=O)CNS(=O)(=O)c1ccc(C)cc1)c1ccccc1OC (stereo unspecified) | active: 15.8 µM | 
Cc1noc(C)c1S(=O)(=O)N(CC(=O)N1CCCC1)c1ccc(C(C)C)cc1 | inconclusive [activator, partial curve, poor fit] | 
C/C(CCN1CCCCc2nc(C)c(C)cc21)=N\OC[C@@H](O)[C@@H]1O[C@@H]2OC(C)(C)O[C@@H]2[C@H]1O |  | inactive: 4.78% [at 11.4 µM]
